# Data reported in PubChem BioAssay AID757 (NMMLSC, 2007).
# Among all 190,000 compounds or so, about 520 (0.27%) were called active. Inconclusive results, whose numbers are uncertain, are shown with a selection of clear calls.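 The calls were made as follows: active = GTP binding activity at least 20 points away from the 100% control level, either lower or higher; inconclusive = compound flagged as likely green fluorescent, judged across all proteins; inactive = the rest.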
# Molecular target: Ras-related C3 botulinum toxin substrate 1 (Homo sapiens) (UniProt P63000)
# Assay: wildtype Rac1 GTP binding modulators, primary screen, biochemical, GST-Rac1 beads, flow cytometry, multiplex (AID 757)
# Settings: fluorescent GTP binding, at 10 µM, actives lie on both sides, 0 = cold GTP competed, 100 = untreated
row,Compound,GTP binding activity (% of control)
1,Cc1cccc(NC(=O)CC2Nc3cccc4cccc(c34)NC2=O)c1 (stereo not given),inconclusive: 106%
2,CC1(O)CC(=O)N(c2ccccc2)O1 (stereo not given),inconclusive: 109%
3,COc1cccc(OCCCN2CCCCCC2)c1,inactive: 95%
4,Cc1ccc(OCc2ccc(C(=O)Nc3ccc(C(N)=O)cc3)o2)c([N+](=O)[O-])c1,inconclusive: 98%
5,COc1ccc(CC(=O)c2ccccc2C(=O)O)cc1,active: 143% [activator]
6,CCOc1ccccc1C(=O)Nc1nn[nH]n1,inconclusive: 94%
7,CCCCC(=O)Nc1cccc(NC(=O)C(C)C)c1,inconclusive: 105%
8,O=c1[nH]c(N2CCc3ccccc3C2)nc2c1CCC2,inconclusive: 93%
9,COc1ccc(/C=C2\CCn3c2nc2cc(C(=O)O)ccc2c3=O)cc1O,inconclusive: 90%
10,CC1Cc2ccccc2N1CC(=O)NC(=O)NCc1ccco1 (stereo not given),inconclusive: 97%
11,COc1cc(/C=N/NC(=O)c2ccoc2C)cc(OC)c1O,inconclusive: 102%
12,C=CCNC(=S)/C(=C(/[O-])c1ccccc1Br)[n+]1ccccc1,inconclusive: 92%
13,COc1cc([N+](=O)[O-])cc(/C=N/NC(=O)c2ccc(NC(=O)c3ccc(C)cc3)cc2)c1O,inactive: 81%
14,COc1ccc(CCNC(=O)COc2nncc3ccccc23)cc1,inactive: 102%
15,Cc1cc(N2CC(C(=O)O)CC2=O)ccc1Br (stereo not given),inconclusive: 107%
16,CCCCN(CC)C(=S)Nc1ccc2nc(N3CCN(C)CC3)cc(C)c2c1,inactive: 101%
17,CCC(C)(C)NC(=O)C(c1cccnc1)N(CCOC)C(=O)Cn1nnc2ccccc21 (stereo not given),inconclusive: 102%
18,Cc1csc(NC(=O)CNS(=O)(=O)c2cccs2)n1,inconclusive: 108%
19,CCOC(=O)Nc1ccc(NC(=O)OCC)cc1,inconclusive: 110%
20,CC1=Nn2c(nnc2-c2ccco2)SC1,inactive: 100%

row,Compound,GTP binding activity (% of control)
1,O=C(CN1C(=O)NC2(CCCCC2)C1=O)N1CCc2ccccc2C1,inconclusive: 100%
2,COc1ccc(OC)c(C(C)NC(=O)Nc2cccc(C(C)=O)c2)c1 (stereo not given),inactive: 100%
3,O=C(Cc1c(O)c2ccccc2[nH]c1=O)NC1CCCCCC1,inactive: 103%
4,COc1ccccc1OCCn1c(C(C)O)nc2ccccc21 (stereo not given),inconclusive: 88%
5,COC1(OC)C(/C=C/c2ccc(C)cc2)C(C#N)(C#N)C1(OC)OC (stereo not given),inconclusive: 104%
6,COc1ccc(-c2nc(Cc3ccc(Cl)cc3)no2)cc1OC,inconclusive: 107%
7,CCOc1ccc(NC(=O)CSc2nc3c([nH]c4ccccc43)c(=O)n2C)cc1,inconclusive: 100%
8,CCc1cccc2c(C#N)cn(CC(=O)NCCOC)c12,inconclusive: 92%
9,CCc1ccc(C2=NN(S(C)(=O)=O)C(c3cccs3)C2)cc1 (stereo not given),inconclusive: 109%
10,Cc1cc(C)nc(NS(=O)(=O)c2ccc(N/C=C/C(=O)c3ccc(Cl)cc3)cc2)n1,inactive: 99%
11,CN1CCN(c2ccccc2NC(=O)c2ccc(-c3cccc([N+](=O)[O-])c3)o2)CC1,active: 123% [activator]
12,CCN(CC(=O)NC(C)C)C(=O)[C@H](C)NC(=O)c1ccc(Br)cc1,inactive: 100%
13,CCOC(=O)c1sc(NN=C(C(=O)OC)C(=O)OC)c(C(=O)OCC)c1C,inactive: 100%
14,C[n+]1ccc(C(=O)N/N=C/c2ccco2)cc1,inactive: 104%
15,Cc1ccc(S(=O)(=O)N2CCCCC2)cc1NC(=O)COC(=O)Cc1ccc(Cl)cc1,inconclusive: 87%
16,CCOc1ccc(-n2cnnn2)cc1S(=O)(=O)N1CCC(C)CC1C (stereo not given),inactive: 97%
17,Cc1nc2ncccn2c1-c1csc(Nc2ccccc2)n1,active: 60%
18,CC(C)CN(C(=O)COC(=O)c1c(Cl)ccc(Cl)c1Cl)C1CCS(=O)(=O)C1 (stereo not given),inactive: 98%
19,CC(C)C(=O)Nc1ccc2nn(-c3ccccc3)nc2c1,inactive: 87%
20,Cc1cc2nc(-c3ccc(SCc4ccccn4)nc3)[nH]c2cc1C,inactive: 88%

row,Compound,GTP binding activity (% of control)
1,O=C(O)CCCCNS(=O)(=O)/C=C/c1ccccc1,inconclusive: 99%
2,Cc1ccc2c(c1)c1c(n2CC(O)Cn2nc(C)c(Br)c2C)C(=O)CCC1 (stereo not given),inconclusive: 92%
3,CCOC(=O)c1c(NC(=O)CSc2nnc(CNc3ccc(F)cc3)o2)sc(C)c1C,inconclusive: 105%
4,CCCS(=O)(=O)N1CCC(C(=O)N2CCOCC2)CC1,inconclusive: 104%
5,CC(=O)c1ccc(NC(=S)NCc2ccc(Cl)cc2Cl)cc1,inactive: 101%
6,CCN1/C(=C2/SC(=S)NC2=O)Sc2ccccc21,inconclusive: 92%
7,Cc1ccc(COc2ccsc2C(=O)O)cc1,inactive: 118%
8,CCOc1ccc(-n2c(C)nc3cc(C(=O)NCc4ccc5c(c4)OCO5)ccc32)cc1,active: 77%
9,CC1CCN(C(C)C(=O)Nc2ccccc2-c2ccccc2)CC1 (stereo not given),inconclusive: 107%
10,CCC(=O)N(c1ccc(C(=O)O)cc1)c1nc(-c2ccc(OC)cc2)c(C)s1,inconclusive: 91%
11,Fc1ccc(-n2c(-c3ccc4ccccc4n3)n[nH]c2=S)cc1Cl,inconclusive: 91%
12,c1ccc(Cn2c(NCc3ccncc3)nc3ccccc32)cc1,inactive: 100%
13,COc1ccc(NC(=O)CN(C)C2CCCCC2)c([N+](=O)[O-])c1,inactive: 100%
14,COc1ccc2c(c1)C=C(C(=O)OCc1cccnc1)CO2,inactive: 97%
15,O=C(O)c1cc2nc(-c3ccc(F)cc3)cc(C(F)(F)F)n2n1,inconclusive: 89%
16,COc1cc(/C=N/NC(=O)CSc2n[nH]c(=O)[nH]c2=O)cc(OC)c1O,inconclusive: 74%
17,O=C(NC1CC1)C1=C[C@H](c2ccc(C(F)(F)F)cc2)C[C@H](OCc2ccc(CO)cc2)O1,inconclusive: 95%
18,O=C(N=Nc1c(O)[nH]c2ccc([N+](=O)[O-])cc12)c1cc(-c2ccccc2Cl)nc2ccccc12,inactive: 100%
19,CCN(Cc1cnn(C)c1)Cc1nc(C(c2ccccc2)c2ccccc2)no1,inactive: 98%
20,COc1ccc(CNC(=O)c2nnn(-c3cccc(C(F)(F)F)c3)c2N)cc1,inactive: 103%
